Assay results taken from paper PMC4336329 (PLoS ONE, 2015).
Hit rate of the full screen: of about 310,000 compounds, about 2,200 (0.71%) showed an effect of 50% or more. The effect is printed as a negative number. The list shows a part of the results.

biological target: human ether-à-go-go-related gene (hERG) potassium channel (human, UniProt Q12809); assay: primary screen, population patch clamp on CHO cells stably expressing hERG
Sequence (Q12809 whole entry, looked up): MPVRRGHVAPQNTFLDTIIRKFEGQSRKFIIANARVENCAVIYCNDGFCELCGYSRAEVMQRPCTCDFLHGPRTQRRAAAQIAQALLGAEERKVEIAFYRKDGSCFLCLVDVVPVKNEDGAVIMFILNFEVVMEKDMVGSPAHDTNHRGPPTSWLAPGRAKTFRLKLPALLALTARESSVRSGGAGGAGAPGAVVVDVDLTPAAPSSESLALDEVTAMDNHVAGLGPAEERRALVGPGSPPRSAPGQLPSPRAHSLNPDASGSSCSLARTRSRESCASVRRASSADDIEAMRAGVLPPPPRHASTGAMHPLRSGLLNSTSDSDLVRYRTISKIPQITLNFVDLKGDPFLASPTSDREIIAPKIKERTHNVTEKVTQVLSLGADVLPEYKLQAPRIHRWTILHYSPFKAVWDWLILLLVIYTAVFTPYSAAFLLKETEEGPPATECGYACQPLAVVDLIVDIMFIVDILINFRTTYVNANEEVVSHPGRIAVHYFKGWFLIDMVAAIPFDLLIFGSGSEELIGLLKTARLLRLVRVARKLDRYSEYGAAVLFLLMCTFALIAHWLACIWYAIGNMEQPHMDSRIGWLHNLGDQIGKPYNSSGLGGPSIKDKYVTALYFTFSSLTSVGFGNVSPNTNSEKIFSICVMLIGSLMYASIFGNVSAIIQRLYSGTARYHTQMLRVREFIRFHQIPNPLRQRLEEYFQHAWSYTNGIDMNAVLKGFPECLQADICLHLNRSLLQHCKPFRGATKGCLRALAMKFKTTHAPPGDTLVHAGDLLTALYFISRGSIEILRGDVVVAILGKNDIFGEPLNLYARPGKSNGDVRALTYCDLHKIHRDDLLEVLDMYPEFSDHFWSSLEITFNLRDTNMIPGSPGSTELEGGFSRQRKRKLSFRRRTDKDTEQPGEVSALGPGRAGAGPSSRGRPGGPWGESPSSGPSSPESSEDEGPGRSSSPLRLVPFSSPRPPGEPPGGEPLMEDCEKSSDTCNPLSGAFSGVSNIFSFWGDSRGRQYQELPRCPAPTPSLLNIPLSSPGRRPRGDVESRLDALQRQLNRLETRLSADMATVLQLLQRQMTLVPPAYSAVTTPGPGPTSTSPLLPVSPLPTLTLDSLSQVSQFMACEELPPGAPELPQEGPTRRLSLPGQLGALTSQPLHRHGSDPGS

Structure (SMILES) | hERG current change (%, negative = inhibition) at 1uM
CC(=O)c1ccc(N2CCN(c3ncccn3)CC2)cc1 | 7.25%
Cc1ccc(S(=O)(=O)/N=C(/Nc2ccccn2)c2ccc(Cl)cc2)cc1 | -8.89%
CN1CCN(C(=O)c2ccccc2NC(=O)c2ccc(C(C)(C)C)cc2)CC1 | 8.72%
O=C1[C@@H]2CSCN2C(=O)CN1Cc1cccc(C(F)(F)F)c1 | 14.3%
NC(=O)C1CCN(C(=O)c2ccc3ccccc3c2)CC1 | 13.1%
CCOc1ccccc1N1CCN(CC(O)COc2ccc3c(C)cc(=O)oc3c2)CC1 (stereo not shown) | -3.83%
N#Cc1c(NC(=O)c2cccnc2)sc2c1CCC2 | 13.9%
O=C(COC(=O)C1CCCCC1)Nc1cccc(Br)c1 | 9.92%
COc1ccc(NC(=O)Cn2nnc(-c3ccccc3NC(=O)c3cccs3)n2)cc1 | 13.2%
CCNc1nc(Cl)nc(NCCOc2ccc(C)cc2)n1 | -3.4%
O=C(O)CC1=C(O)C(=O)N(c2ccccc2)C1c1ccc(Br)cc1 (stereo not shown) | 13.8%
CCSc1nnc(NC(=O)C(NC(=O)c2ccc(Cl)cc2)C(C)C)s1 (stereo not shown) | 10.1%
Cc1ccc(-c2csc(NC(=O)C3=COCCO3)n2)cc1C | 10.9%
O=C(N/N=C/c1ccco1)c1cc(-c2ccc3ccccc3c2)n[nH]1 | 12.8%
CN=C1S/C(=C\c2ccc(O)c(Br)c2)C(=O)N1C | 8.05%
Cc1cccc(NC(=O)c2ccccc2-c2ccccc2)c1 | -3.82%
Oc1c(CN2CCc3ccccc3C2)cc(Cl)c2cccnc12 | 4.7%
CCn1c(SCc2cccc(C)c2)nnc1-c1ccc(C)cc1 | -1.21%
Cc1c(C#N)c2ccccc2n1CC(=O)N1CCCc2ccccc21 | 6.71%
Cc1ccc2c(c1)N(CC(=O)NCC1CCCO1)C(=O)C(C(C)C)O2 (stereo not shown) | 5.4%
CCc1noc(C)c1C(=O)OC(C)C(=O)Nc1cc([N+](=O)[O-])ccc1OC (stereo not shown) | -1.71%
CSc1nc(C)cc(Oc2ccc(OCC(N)=O)nn2)n1 | 12.4%
N#Cc1cc([N+](=O)[O-])c(-n2nnc3ccccc32)c([N+](=O)[O-])c1 | 10.4%
Cc1cc(NC(=O)CSc2nnc(CNC(=O)c3c(F)cccc3F)o2)no1 | 7.29%
COc1ccccc1C(=O)Nc1ccc2nc(SCC(=O)N(C)C)sc2c1 | 1.71%
